# Data from the supplement of paper PMC12230231.
# ± gives the standard deviation of the averaged measurements. Restriction of a single-cycle SIVsab GFP reporter by TRIM5α v1-loop variants in CRFK cells. Human variants: read share among cells still uninfected after two challenges over input, higher = gained restriction. Rhesus variants: share among infected cells over input, higher = lost restriction. Reporter dose not given per row. No active / inactive call per row; the paper calls a change when both replicates lie above its controls (mean + 2 SD of stop or wild-type variants, or the top frameshift score). Residues outside the varied loop are taken from Swiss-Prot. The paper reads the human single-substitution scores as noise; they and the rhesus combinations repeat poorly (rank correlation 0.3 to 0.4), indel scores repeat only for the top variants, rhesus substitutions well (0.9).
# System: SIVsab (simian immunodeficiency virus of sabaeus monkeys), single-cycle GFP reporter, in CRFK cells
# Assay: enrichment among uninfected cells over input (fold); higher = stronger restriction
# Settings: library: human / rhesus combinations
# Experimental: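 Pools of CRFK cells expressing variants of the TRIM5α v1 loop were challenged with the single-cycle reporter, sorted by GFP and sequenced; mean of two replicates.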
row,Sequence,enrichment
1,"MASGILVNVKEEVTCPICLELLTQPLSLDCGHSFCQACLTANHKKSMLDKGESSCPVCRISYQPENIRPNRHVANIVEKLREVKLSPEGQKVDHCARHGEKLLLFCQEDGKVICWLCERSQEHRGHHTFLTEEVAREYQVKLQAALEMLRQKQQEAEELEADIREEKASWKTQIQYDKTNVLADFEQLRDILDWEESNELQNLEKEEEDILKSLTNSETEMVQQTQSLRELISDLEHRLQGSVMELLQGVDGVIKRTENVTLKKPETFPKNQRRVFRAPDLKGMLEVFRELTDVRRYWVDVTVAPNNISCAVISEDKRQVSSPKPQIIYGARGTRYTFQSLTNFNYCTGILGSQSITSGKHYWEVDVSKKTAWILGVCAGFQPDAMCNIEKNENYQPKYGYWVIGLEEGVKCSAFQDSSFHTPSVPFIVPLSVIICPDRVGVFLDYEACTVSFFNITNHGFLIYKFSHCSFSQPVFPYLNPRKCGVPMTLCSPSS [human TRIM5α, 330-340 = GARGTRYTFQSLT]",0.182 ± 0.0047
2,"MASGILVNVKEEVTCPICLELLTQPLSLDCGHSFCQACLTANHKKSMLDKGESSCPVCRISYQPENIRPNRHVANIVEKLREVKLSPEGQKVDHCARHGEKLLLFCQEDGKVICWLCERSQEHRGHHTFLTEEVAREYQVKLQAALEMLRQKQQEAEELEADIREEKASWKTQIQYDKTNVLADFEQLRDILDWEESNELQNLEKEEEDILKSLTNSETEMVQQTQSLRELISDLEHRLQGSVMELLQGVDGVIKRTENVTLKKPETFPKNQRRVFRAPDLKGMLEVFRELTDVRRYWVDVTVAPNNISCAVISEDKRQVSSPKPQIIYGARGTRFTFPSLVNFNYCTGILGSQSITSGKHYWEVDVSKKTAWILGVCAGFQPDAMCNIEKNENYQPKYGYWVIGLEEGVKCSAFQDSSFHTPSVPFIVPLSVIICPDRVGVFLDYEACTVSFFNITNHGFLIYKFSHCSFSQPVFPYLNPRKCGVPMTLCSPSS [human TRIM5α, 330-340 = GARGTRFTFPSLV]",0.35 ± 0.14
3,"MASGILVNVKEEVTCPICLELLTQPLSLDCGHSFCQACLTANHKKSMLDKGESSCPVCRISYQPENIRPNRHVANIVEKLREVKLSPEGQKVDHCARHGEKLLLFCQEDGKVICWLCERSQEHRGHHTFLTEEVAREYQVKLQAALEMLRQKQQEAEELEADIREEKASWKTQIQYDKTNVLADFEQLRDILDWEESNELQNLEKEEEDILKSLTNSETEMVQQTQSLRELISDLEHRLQGSVMELLQGVDGVIKRTENVTLKKPETFPKNQRRVFRAPDLKGMLEVFRELTDVRRYWVDVTVAPNNISCAVISEDKRQVSSPKPQIIYQARGTRYTFPTLTNFNYCTGILGSQSITSGKHYWEVDVSKKTAWILGVCAGFQPDAMCNIEKNENYQPKYGYWVIGLEEGVKCSAFQDSSFHTPSVPFIVPLSVIICPDRVGVFLDYEACTVSFFNITNHGFLIYKFSHCSFSQPVFPYLNPRKCGVPMTLCSPSS [human TRIM5α, 330-340 = QARGTRYTFPTLT]",0.387 ± 0.36
4,"MASGILVNVKEEVTCPICLELLTQPLSLDCGHSFCQACLTANHKKSMLDKGESSCPVCRISYQPENIRPNRHVANIVEKLREVKLSPEGQKVDHCARHGEKLLLFCQEDGKVICWLCERSQEHRGHHTFLTEEVAREYQVKLQAALEMLRQKQQEAEELEADIREEKASWKTQIQYDKTNVLADFEQLRDILDWEESNELQNLEKEEEDILKSLTNSETEMVQQTQSLRELISDLEHRLQGSVMELLQGVDGVIKRTENVTLKKPETFPKNQRRVFRAPDLKGMLEVFRELTDVRRYWVDVTVAPNNISCAVISEDKRQVSSPKPQIIYGAPGTRYTFPTFVNFNYCTGILGSQSITSGKHYWEVDVSKKTAWILGVCAGFQPDAMCNIEKNENYQPKYGYWVIGLEEGVKCSAFQDSSFHTPSVPFIVPLSVIICPDRVGVFLDYEACTVSFFNITNHGFLIYKFSHCSFSQPVFPYLNPRKCGVPMTLCSPSS [human TRIM5α, 330-340 = GAPGTRYTFPTFV]",0.296 ± 0.04

# Same assay, conditions: library: insertions and deletions
row,Sequence,enrichment
1,"MASGILVNVKEEVTCPICLELLTQPLSLDCGHSFCQACLTANHKKSMLDKGESSCPVCRISYQPENIRPNRHVANIVEKLREVKLSPEGQKVDHCARHGEKLLLFCQEDGKVICWLCERSQEHRGHHTFLTEEVAREYQVKLQAALEMLRQKQQEAEELEADIREEKASWKTQIQYDKTNVLADFEQLRDILDWEESNELQNLEKEEEDILKSLTNSETEMVQQTQSLRELISDLEHRLQGSVMELLQGVDGVIKRTENVTLKKPETFPKNQRRVFRAPDLKGMLEVFRELTDVRRYWVDVTVAPNNISCAVISEDKRQVSSPKPQIIYGARGPQIIYGARGTRYQTFVNFNYCTGILGSQSITSGKHYWEVDVSKKTAWILGVCAGFQPDAMCNIEKNENYQPKYGYWVIGLEEGVKCSAFQDSSFHTPSVPFIVPLSVIICPDRVGVFLDYEACTVSFFNITNHGFLIYKFSHCSFSQPVFPYLNPRKCGVPMTLCSPSS [human TRIM5α, 9-codon duplication at 325]",0.734 ± 0.72
2,"MASGILVNVKEEVTCPICLELLTQPLSLDCGHSFCQACLTANHKKSMLDKGESSCPVCRISYQPENIRPNRHVANIVEKLREVKLSPEGQKVDHCARHGEKLLLFCQEDGKVICWLCERSQEHRGHHTFLTEEVAREYQVKLQAALEMLRQKQQEAEELEADIREEKASWKTQIQYDKTNVLADFEQLRDILDWEESNELQNLEKEEEDILKSLTNSETEMVQQTQSLRELISDLEHRLQGSVMELLQGVDGVIKRTENVTLKKPETFPKNQRRVFRAPDLKGMLEVFRELTDVRRYWVDVTVAPNNISCAVISEDKRQVSSPKPQIIYGARGTRYQTQTFVNFNYCTGILGSQSITSGKHYWEVDVSKKTAWILGVCAGFQPDAMCNIEKNENYQPKYGYWVIGLEEGVKCSAFQDSSFHTPSVPFIVPLSVIICPDRVGVFLDYEACTVSFFNITNHGFLIYKFSHCSFSQPVFPYLNPRKCGVPMTLCSPSS [human TRIM5α, 2-codon duplication at 337]",0.403 ± 0.08
3,"MASGILVNVKEEVTCPICLELLTQPLSLDCGHSFCQACLTANHKKSMLDKGESSCPVCRISYQPENIRPNRHVANIVEKLREVKLSPEGQKVDHCARHGEKLLLFCQEDGKVICWLCERSQEHRGHHTFLTEEVAREYQVKLQAALEMLRQKQQEAEELEADIREEKASWKTQIQYDKTNVLADFEQLRDILDWEESNELQNLEKEEEDILKSLTNSETEMVQQTQSLRELISDLEHRLQGSVMELLQGVDGVIKRTENVTLKKPETFPKNQRRVFRAPDLKGMLEVFRELTDVRRYWVDVTVAPNNISCAVISEDKRQVSSPKPQIIYGARGTIYGARGTRYQTFVNFNYCTGILGSQSITSGKHYWEVDVSKKTAWILGVCAGFQPDAMCNIEKNENYQPKYGYWVIGLEEGVKCSAFQDSSFHTPSVPFIVPLSVIICPDRVGVFLDYEACTVSFFNITNHGFLIYKFSHCSFSQPVFPYLNPRKCGVPMTLCSPSS [human TRIM5α, 7-codon duplication at 328]",0.423 ± 0.0064
4,"MASGILVNVKEEVTCPICLELLTQPLSLDCGHSFCQACLTANHKKSMLDKGESSCPVCRISYQPENIRPNRHVANIVEKLREVKLSPEGQKVDHCARHGEKLLLFCQEDGKVICWLCERSQEHRGHHTFLTEEVAREYQVKLQAALEMLRQKQQEAEELEADIREEKASWKTQIQYDKTNVLADFEQLRDILDWEESNELQNLEKEEEDILKSLTNSETEMVQQTQSLRELISDLEHRLQGSVMELLQGVDGVIKRTENVTLKKPETFPKNQRRVFRAPDLKGMLEVFRELTDVRRYWVDVTVAPNNISCAVISEDKRQVSSPKPQIIYGARGTRFNYCTGILGSQSITSGKHYWEVDVSKKTAWILGVCAGFQPDAMCNIEKNENYQPKYGYWVIGLEEGVKCSAFQDSSFHTPSVPFIVPLSVIICPDRVGVFLDYEACTVSFFNITNHGFLIYKFSHCSFSQPVFPYLNPRKCGVPMTLCSPSS [human TRIM5α, 6-codon deletion at 336]",0.525 ± 0.0057
5,"MASGILVNVKEEVTCPICLELLTQPLSLDCGHSFCQACLTANHKKSMLDKGESSCPVCRISYQPENIRPNRHVANIVEKLREVKLSPEGQKVDHCARHGEKLLLFCQEDGKVICWLCERSQEHRGHHTFLTEEVAREYQVKLQAALEMLRQKQQEAEELEADIREEKASWKTQIQYDKTNVLADFEQLRDILDWEESNELQNLEKEEEDILKSLTNSETEMVQQTQSLRELISDLEHRLQGSVMELLQGVDGVIKRTENVTLKKPETFPKNQRRVFRAPDLKGMLEVFRELTDVRRYWVDVTVAPNNISCAVISEDKRQVSSPKPQIIYGARYQTFVNFNYCTGILGSQSITSGKHYWEVDVSKKTAWILGVCAGFQPDAMCNIEKNENYQPKYGYWVIGLEEGVKCSAFQDSSFHTPSVPFIVPLSVIICPDRVGVFLDYEACTVSFFNITNHGFLIYKFSHCSFSQPVFPYLNPRKCGVPMTLCSPSS [human TRIM5α, 3-codon deletion at 332]",0.138 ± 0.15
6,"MASGILVNVKEEVTCPICLELLTQPLSLDCGHSFCQACLTANHKKSMLDKGESSCPVCRISYQPENIRPNRHVANIVEKLREVKLSPEGQKVDHCARHGEKLLLFCQEDGKVICWLCERSQEHRGHHTFLTEEVAREYQVKLQAALEMLRQKQQEAEELEADIREEKASWKTQIQYDKTNVLADFEQLRDILDWEESNELQNLEKEEEDILKSLTNSETEMVQQTQSLRELISDLEHRLQGSVMELLQGVDGVIKRTENVTLKKPETFPKNQRRVFRAPDLKGMLEVFRELTDVRRYWVDVTVAPNNISCAVISEDKRQVSSPKPIIYGARGTRYQTFVNFNYCTGILGSQSITSGKHYWEVDVSKKTAWILGVCAGFQPDAMCNIEKNENYQPKYGYWVIGLEEGVKCSAFQDSSFHTPSVPFIVPLSVIICPDRVGVFLDYEACTVSFFNITNHGFLIYKFSHCSFSQPVFPYLNPRKCGVPMTLCSPSS [human TRIM5α, 1-codon deletion at 326]",0.584 ± 0.022
7,"MASGILVNVKEEVTCPICLELLTQPLSLDCGHSFCQACLTANHKKSMLDKGESSCPVCRISYQPENIRPNRHVANIVEKLREVKLSPEGQKVDHCARHGEKLLLFCQEDGKVICWLCERSQEHRGHHTFLTEEVAREYQVKLQAALEMLRQKQQEAEELEADIREEKASWKTQIQYDKTNVLADFEQLRDILDWEESNELQNLEKEEEDILKSLTNSETEMVQQTQSLRELISDLEHRLQGSVMELLQGVDGVIKRTENVTLKKPETFPKNQRRVFRAPDLKGMLEVFRELTDVRRYWVDVTVAPNNISCAVISEDKRQVSSPKPQIIYGARGTRYQNYCTGILGSQSITSGKHYWEVDVSKKTAWILGVCAGFQPDAMCNIEKNENYQPKYGYWVIGLEEGVKCSAFQDSSFHTPSVPFIVPLSVIICPDRVGVFLDYEACTVSFFNITNHGFLIYKFSHCSFSQPVFPYLNPRKCGVPMTLCSPSS [human TRIM5α, 5-codon deletion at 338]",0.422 ± 0.16
8,"MASGILVNVKEEVTCPICLELLTQPLSLDCGHSFCQACLTANHKKSMLDKGESSCPVCRISYQPENIRPNRHVANIVEKLREVKLSPEGQKVDHCARHGEKLLLFCQEDGKVICWLCERSQEHRGHHTFLTEEVAREYQVKLQAALEMLRQKQQEAEELEADIREEKASWKTQIQYDKTNVLADFEQLRDILDWEESNELQNLEKEEEDILKSLTNSETEMVQQTQSLRELISDLEHRLQGSVMELLQGVDGVIKRTENVTLKKPETFPKNQRRVFRAPDLKGMLEVFRELTDVRRYWVDVTVAPNNISCAVISEDKRQVSSPKPQIIYGPQIIYGARGTRYQTFVNFNYCTGILGSQSITSGKHYWEVDVSKKTAWILGVCAGFQPDAMCNIEKNENYQPKYGYWVIGLEEGVKCSAFQDSSFHTPSVPFIVPLSVIICPDRVGVFLDYEACTVSFFNITNHGFLIYKFSHCSFSQPVFPYLNPRKCGVPMTLCSPSS [human TRIM5α, 6-codon duplication at 325]",0.355 ± 0.098
